33 compounds from the antibiotic and cytotoxicity screens of Wong et al. (2023) can be followed below.

Molecules are shown by their SMILES. The list shows a part of the results.

In this test the test system is S. aureus RN4220. The test is described as follows: growth inhibition call (relative growth <= 0.2). Particulars: 50 µM.
In the case of `C[C@@H]1CN([C@@H](C)CO)C(=O)c2cc(NC(=O)C3CCCCC3)ccc2O[C@@H]1CN(C)Cc1ccc(Cl)c(Cl)c1`, the growth inhibition call was “inactive”.

As for `C[C@@H]1CN([C@H](C)CO)C(=O)c2cccc(NS(=O)(=O)c3cn(C)cn3)c2O[C@H]1CN(C)C(=O)Nc1ccccc1`, the growth inhibition call was “inactive”.

On to `COc1ccc(CN(C)C[C@H]2OCCCC[C@H](C)Oc3ccc(NC(=O)NC(C)C)cc3C(=O)N([C@H](C)CO)C[C@@H]2C)cc1`, for which the growth inhibition call is “inactive”.

For the compound `COc1ccc(S(=O)(=O)N(C)C[C@H]2Oc3ccc(NC(=O)Nc4c(C)noc4C)cc3C(=O)N([C@@H](C)CO)C[C@@H]2C)cc1`, the growth inhibition call was “inactive”.

Take `C[C@@H]1CN([C@H](C)CO)C(=O)c2cc(NC(=O)Nc3cccc4ccccc34)ccc2O[C@H]1CN(C)Cc1ccc(C(F)(F)F)cc1`: the growth inhibition call is “inactive”.

For the compound `CC(C)NC(=O)N(C)C[C@@H]1Oc2c(NS(=O)(=O)c3ccc(Cl)cc3)cccc2C(=O)N([C@@H](C)CO)C[C@H]1C`, the growth inhibition call is “inactive”.

As for `C[C@H]1CN([C@@H](C)CO)C(=O)Cc2cc(NC(=O)CCCN(C)C)ccc2O[C@@H]1CN(C)S(=O)(=O)c1cn(C)cn1`, the growth inhibition call is “inactive”.

`O=C(C[C@H]1CC[C@@H]2[C@H](COC[C@H](O)CN2C(=O)Nc2cccc(F)c2)O1)NCc1ccccc1Cl`: the growth inhibition call is “inactive”.

For `CCOC(=O)C1=CC(OC(CC)CC)C(NC(C)=O)C(N)C1.O=P(O)(O)O` (stereo not drawn), the growth inhibition call is “inactive”.

As for `C[C@H]1CCCCO[C@H](CN(C)C(=O)C2CCCCC2)[C@@H](C)CN([C@@H](C)CO)C(=O)c2cc(NC(=O)Cc3ccccc3)ccc2O1`, the growth inhibition call is “inactive”.

`Cc1ccc(S(=O)(=O)N(C)C[C@@H]2Oc3ccc(NS(=O)(=O)c4ccc(F)cc4)cc3CC(=O)N([C@H](C)CO)C[C@H]2C)cc1`: the growth inhibition call was “inactive”.

As for `NC(=O)c1ncn(C2OC(CO)C(O)C2O)c1N` (stereo not drawn), the growth inhibition call was “inactive”.

As for `COCC#Cc1ccc([C@H]2[C@@H](CO)N3C(=O)CN(C(=O)CN4CCOCC4)C[C@H]23)cc1`, the growth inhibition call was “inactive”.

In the case of `c1cn2c3c(n1)CCCc3c1cc(C3CCCCC3)ccc12`, the growth inhibition call was “inactive”.

On to `Cc1nc[nH]c1CN(C)[C@H](C)C(=O)N(C)C`, for which the growth inhibition call is “inactive”.

Take `Nc1ncnc(NCCN2CCOCC2)c1[N+](=O)[O-]`: the growth inhibition call is “inactive”.

`C[C@H](CO)N1C[C@H](C)[C@H](CN(C)S(=O)(=O)c2cn(C)cn2)Oc2c(NS(=O)(=O)c3ccc(Cl)cc3)cccc2C1=O`: the growth inhibition call was “inactive”.

Turning to `CC(C)NC(=O)N(C)C[C@H]1Oc2ccc(NC(=O)NC3CCCCC3)cc2C(=O)N([C@H](C)CO)C[C@@H]1C`, the growth inhibition call is “inactive”.

Take `CCN(CC)c1ccnc([C@H]2COCCN2)n1`: the growth inhibition call was “inactive”.

Regarding `CCCCCCCCNC(C)C(O)c1ccc(SC(C)C)cc1` (stereo not drawn), the growth inhibition call was “inactive”.

With `C[C@H](CO)N1C[C@H](C)[C@@H](CN(C)S(=O)(=O)c2ccccc2)Oc2ccc(NS(=O)(=O)c3cn(C)cn3)cc2CC1=O`, the growth inhibition call is “inactive”.

Take `Cc1ccc(S(=O)(=O)Nc2ccc3c(c2)C(=O)N([C@H](C)CO)C[C@H](C)[C@H](CN(C)Cc2ccccc2)OCCCC[C@@H](C)O3)cc1`: the growth inhibition call was “inactive”.

As for `Cc1noc(C)c1NC(=O)Nc1cccc2c1O[C@H](CN(C)C(=O)Nc1cccc3ccccc13)[C@@H](C)CN([C@H](C)CO)C2=O`, the growth inhibition call is “inactive”.

With `CC(C)c1c(C(=O)c2ccccc2)c(-c2ccccc2)c(-c2ccc(F)cc2)n1CC[C@@H](O)C[C@@H](O)CC(=O)O`, the growth inhibition call was “inactive”.

Consider `C[C@H]1CN([C@@H](C)CO)C(=O)c2cc(NS(C)(=O)=O)ccc2O[C@H]1CN(C)S(=O)(=O)c1ccc(F)cc1`, for which the growth inhibition call was “inactive”.

`C[C@H]1CN([C@@H](C)CO)C(=O)Cc2cc(NS(=O)(=O)c3cn(C)cn3)ccc2O[C@H]1CN(C)S(=O)(=O)c1ccc(F)cc1`: the growth inhibition call was “inactive”.

With `CC(C)C#Cc1cnc2c(c1)C(=O)N([C@H](C)CO)C[C@H](C)[C@@H](CN(C)S(=O)(=O)c1cn(C)cn1)O2`, the growth inhibition call is “inactive”.

On to `CN1CCC(CO)CC1`, for which the growth inhibition call was “inactive”.

Regarding `O=C(C[C@@H]1C=C[C@H](NS(=O)(=O)c2ccc(F)cc2)[C@H](CO)O1)NCc1ccc(Cl)c(Cl)c1`, the growth inhibition call is “inactive”.

As for `CCCNC(=O)N[C@H]1C=C[C@H](CC(=O)N2CCN(C)CC2)O[C@H]1CO`, the growth inhibition call was “inactive”.

As for `CN1CCN(C(=O)C[C@H]2CC[C@@H](NC(=O)Cc3ccccn3)[C@@H](CO)O2)CC1`, the growth inhibition call is “inactive”.

For `C[C@@H]1CN([C@@H](C)CO)C(=O)c2cc(NS(=O)(=O)c3cccs3)ccc2O[C@@H](C)CCCCO[C@@H]1CN(C)C(=O)c1ccccc1`, the growth inhibition call is “inactive”.

`C[C@@H]1CCCCO[C@H](CN(C)C(=O)NC2CCCCC2)[C@@H](C)CN([C@@H](C)CO)C(=O)c2cc(NC(=O)Nc3ccc(C(F)(F)F)cc3)ccc2O1`: the growth inhibition call was “inactive”.
